These results are taken from paper PMC4242493.

Some of the results follow. The list includes weakly bound sequences.

This assay has as its target MaxL homodimer (UniProt P61244). Kind of assay: universal protein-binding microarray (PBM). As to conditions: PBS-based mixture, 10 nM His-tagged protein dimer, 2% milk, 200 ng/uL BSA, 50 ng/uL salmon testes DNA, 0.02% TX-100; detection with Alexa 488 anti-His …; high values mean tight binding; most listed sequences are background and not binding sites; double strand, one strand shown.
UniProt P61244, sequence (P61244 whole entry): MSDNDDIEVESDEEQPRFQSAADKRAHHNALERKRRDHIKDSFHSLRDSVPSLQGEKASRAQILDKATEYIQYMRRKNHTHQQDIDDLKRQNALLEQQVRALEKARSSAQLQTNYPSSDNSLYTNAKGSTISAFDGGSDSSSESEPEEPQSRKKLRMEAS
Consider CCTTTATC, for which the binding signal (normalized occupancy) stood at 0.0707.
To TCGAGAAA belongs 0.0822.
To GGTTGGGA belongs 0.0718; to CGAATAGC, 0.076; to AGGACCCG, 0.071.
The same measure for AGATACGG: 0.07; for AGCCGCAT: 0.0772.
Take ACGCTCGA: the binding signal (normalized occupancy) stood at 0.0833.
Consider AAGCAAAT, for which the binding signal (normalized occupancy) was 0.073.
To ACGTCTCT belongs 0.0717.
Turning to AATCGTCC, the binding signal (normalized occupancy) was 0.0712.
To ATACTCGA belongs 0.0743.
With ATATAAAC, the binding signal (normalized occupancy) amounted to 0.0809.
The same measure for AGACAGCA: 0.075.
GAGGCCGA: the binding signal (normalized occupancy) turned out to be 0.0714.
To AATCTGGG belongs 0.0714.
The same measure for ATCGAAGA: 0.0743; for AATGCATG: 0.1.
To AGATCAGC belongs 0.0721; to CTAAGAAC, 0.0757; to GGTGCGTA, 0.0772.
Turning to CTCGACGA, the binding signal (normalized occupancy) stood at 0.0668.
Regarding ACATGCAC, the binding signal (normalized occupancy) is 0.0954.
To ATTCTTCG belongs 0.0734; to TCCCGCCA, 0.0727; to GGCCTAAA, 0.0717.
To ATCAAATA belongs 0.0822; to ATTGATTC, 0.0703; to CTCGAAGC, 0.0669.
To CGAAGTAG belongs 0.0648; to AGATATAC, 0.0813.
For AACACTGG, the binding signal (normalized occupancy) is 0.078.
The same measure for CCTGGGAC: 0.0732.
Regarding AGATTATG, the binding signal (normalized occupancy) is 0.0778.
For GGCAGATA, the binding signal (normalized occupancy) was found to be 0.0757.
The same measure for TATAGGCA: 0.083; for ATAAAACG: 0.079; for ACTAAGCG: 0.0688.
To CCAAAGGG belongs 0.068.
To CCATGTAA belongs 0.0855.
In the case of CTACGGAC, the binding signal (normalized occupancy) turned out to be 0.0717.
The same measure for CGTCAACC: 0.0721; for GCATGGGC: 0.0946.
The same measure for ACGACAAA: 0.0746.
Consider CCTCGTAC, for which the binding signal (normalized occupancy) was 0.0715.
The same measure for GAGCGAAA: 0.0677; for GATGACAA: 0.0764; for GATATCTA: 0.0825.
The same measure for TCAGTTAA: 0.076; for CCTATATC: 0.0766.
The same measure for CTGGCCAG: 0.0682; for ATCGATGC: 0.0768.
Consider CATCTATC, for which the binding signal (normalized occupancy) came out at 0.0808.
To TCATAAAA belongs 0.0751; to CACGCCAC, 0.0943; to GATTTCGA, 0.0737.
To ATTTTCAG belongs 0.0739; to CGGACGCC, 0.0726.
On to CTGTTCAC, for which the binding signal (normalized occupancy) came out at 0.0797.
For ACAGTCGT, the binding signal (normalized occupancy) was 0.0727.
The same measure for GAGGTCGC: 0.0789; for CCTCAAAG: 0.0733; for ACAGGGTA: 0.077.
To CTGGTCAC belongs 0.0773; to ATACGAAT, 0.0777.
To TGAGCCCA belongs 0.074.
Take AGCGCGTG: the binding signal (normalized occupancy) was found to be 0.117.
On to GTCCGCTA, for which the binding signal (normalized occupancy) was determined as 0.0676.
To CCGGCCAA belongs 0.0717; to ATAACTAG, 0.0817.
To TACGCCAA belongs 0.0683; to CTCACTCA, 0.0759; to CGCTCTGC, 0.0677.
Turning to GCCGTTAC, the binding signal (normalized occupancy) amounted to 0.0696.
As for GCCGTTCA, the binding signal (normalized occupancy) came out at 0.0711.
TCACAAAA: the binding signal (normalized occupancy) came to 0.0778.
With AGCGCGGA, the binding signal (normalized occupancy) came to 0.074.
To CCCTTGCG belongs 0.0718; to AATATAAG, 0.0817.
In the case of CTCACGCC, the binding signal (normalized occupancy) amounted to 0.0879.
To ATTTCAGA belongs 0.0733.
To CCGGTGCC belongs 0.067.
To GGGTATAA belongs 0.0798; to CATCGACC, 0.073; to ATAGCAAC, 0.0797.
As to AAAAAACC, the binding signal (normalized occupancy) amounted to 0.0778.
To AATTACGC belongs 0.082; to AGAACTAT, 0.0764; to ACCTCAAT, 0.0773.
To ATTCACAC belongs 0.0855; to TAACGGCA, 0.0754; to CTGCTTGA, 0.0719.
With CTCTAACC, the binding signal (normalized occupancy) amounted to 0.0754.
To ATGCTTGC belongs 0.0786; to CCAATGGG, 0.0687.
To AACTTATA belongs 0.0773; to ACGCTTGA, 0.0824; to AACACGAA, 0.0741.
To CCATTCGC belongs 0.0743; to AACAACTC, 0.0756.
As to CCCGAGGC, the binding signal (normalized occupancy) was 0.0708.
To GATTTCAA belongs 0.0687; to CCACCTGA, 0.099.
To AAAGATTG belongs 0.074; to GAGACAAC, 0.0765; to AAATGGTA, 0.0806.
The same measure for CTAAGCAC: 0.0741; for CACACGGC: 0.0774.
AGTTTAAT: the binding signal (normalized occupancy) was determined as 0.0788.
Regarding CATCCCCG, the binding signal (normalized occupancy) turned out to be 0.0773.
The same measure for AAGCTCGT: 0.0735.
To CGATTCTC belongs 0.0755; to ATATATCG, 0.0769; to GGCAGGAA, 0.0711.
The same measure for CTGGCACC: 0.0753; for CGTCTGCC: 0.0776; for AAATAAAG: 0.0763.
For CAACTTGA, the binding signal (normalized occupancy) is 0.0718.
The same measure for CACATACC: 0.0797; for GCCAATTA: 0.0802.
The same measure for GCATCAGC: 0.0743.
To ATAGCAAA belongs 0.0805.
In the case of GTGCTTAA, the binding signal (normalized occupancy) amounted to 0.0814.
To ACGGTATG belongs 0.0863.
To GCTAATAC belongs 0.073.
CCTGGCTC: the binding signal (normalized occupancy) came to 0.0726.
To GGTATTTA belongs 0.0785; to GGCTTCAC, 0.07.
TAAAACTA: the binding signal (normalized occupancy) was found to be 0.073.
The same measure for GAGTTCCC: 0.0719.
To AGGGCAGC belongs 0.0693; to CAGCAGCC, 0.0739.
To CAAGTACC belongs 0.0765; to AGAGCCGC, 0.0694; to ATCTAATC, 0.0817.
As for CTCGCTAA, the binding signal (normalized occupancy) came to 0.0788.
The same measure for AAGATTGT: 0.0723; for AGAAACAC: 0.0789.
To CTCCTAGA belongs 0.0723.
To ATCTTCGC belongs 0.0811; to CTAATGTC, 0.0828; to TATGACGA, 0.0799.
For the sequence AATGTATC, the binding signal (normalized occupancy) was 0.0876.
To AAGTTCGA belongs 0.0722.
The same measure for AGGCGGGG: 0.0849; for AGTCGGTA: 0.075; for GCATAGCC: 0.0775.
Turning to AGACATGA, the binding signal (normalized occupancy) was determined as 0.0878.
Consider ATGTGCGC, for which the binding signal (normalized occupancy) turned out to be 0.0928.
To CACAGACA belongs 0.0809; to TATCCGAA, 0.0725.
To CGAAGTCG belongs 0.0684; to CACCCGGA, 0.0742.
With GAAGAGCA, the binding signal (normalized occupancy) stood at 0.0777.
Take ATCGGTAG: the binding signal (normalized occupancy) stood at 0.0791.
The same measure for GATCGGTA: 0.0727; for TACTGATA: 0.0818; for TAATAAGA: 0.0705.
To ATCAGGCG belongs 0.0806.
The same measure for CGTGGCTA: 0.0904; for CGCCCCGC: 0.0714.
As for TACCAATA, the binding signal (normalized occupancy) was 0.0774.
To CGCAGACA belongs 0.0734; to GTTCTGGA, 0.0742; to CAATATCA, 0.0847.
To AGGACAAA belongs 0.0749.
The same measure for CGAATGTA: 0.0796; for GGCAATCA: 0.08.
As to CGGCGGAG, the binding signal (normalized occupancy) turned out to be 0.0686.
To TGGGAGAA belongs 0.0747; to GTGAGCCA, 0.0856.
The same measure for ACGAGTAA: 0.0802; for CTAAAGTC: 0.0656.
To GGCAGACA belongs 0.0757; to ACAACACG, 0.0955; to GCTTGGTA, 0.0733.
Turning to CTATAGCA, the binding signal (normalized occupancy) was 0.0757.
To AACGACTA belongs 0.0757; to CAATGTTA, 0.0744.
The same measure for AACAAGAG: 0.0704; for GCAGACTA: 0.0685; for CTTAACGC: 0.0715.
To AGCGAGAT belongs 0.0717; to GGACGTAC, 0.0744.
For GGCCGTGA, the binding signal (normalized occupancy) was determined as 0.0765.
The same measure for AACGTAGA: 0.0771; for GCGATAGA: 0.0749.
As for CTCACTAC, the binding signal (normalized occupancy) is 0.0758.
To CGAGCTAG belongs 0.0711.
To AAAAAGGA belongs 0.0699; to AGGTTACC, 0.073; to GATAAAAC, 0.0726.
Turning to ATTCTTAG, the binding signal (normalized occupancy) was found to be 0.0777.
The same measure for AGGGACCA: 0.0749; for ACTTCGAC: 0.0712.
To ATAAGATA belongs 0.078; to CGGTGCGC, 0.0751; to ATCACTAG, 0.0762.
To AACCCGCA belongs 0.0735.
As to GAAACTTC, the binding signal (normalized occupancy) turned out to be 0.0708.
To GTACGCGA belongs 0.0798; to AGTAATCG, 0.0737.
The same measure for CAACAACA: 0.081; for CGTCTCTC: 0.0706.
To ACTTGGGA belongs 0.0685.
As for AGGGGGCG, the binding signal (normalized occupancy) turned out to be 0.0785.
The same measure for GCACAGGC: 0.072; for ATTAGTGA: 0.0772.
In the case of ATTCTAAC, the binding signal (normalized occupancy) was 0.078.
The same measure for ATCTGGGC: 0.0708; for ACGTTAAT: 0.0786; for ATTACTAG: 0.0746.
To ATACGTAC belongs 0.0818.
The same measure for AAGCTCAT: 0.0729; for CGAAAATA: 0.0753.
In the case of TAGGGAAA, the binding signal (normalized occupancy) stood at 0.0792.
Turning to ATGACTTG, the binding signal (normalized occupancy) was 0.0818.
To ATGCCTTA belongs 0.0772; to GAGACATC, 0.0756.
